These results are taken from paper PMC4336329 (PLoS ONE, 2015).

Among all 310,000 compounds or so, about 2,200 (0.71%) showed an effect of 50% or more. The effect is printed as a negative number. The list shows a part of the results.

For this experiment, the target named is human ether-à-go-go-related gene (hERG) potassium channel (human, UniProt Q12809). Kind of experiment: primary screen, population patch clamp on CHO cells stably expressing hERG.
Chain of human ether-à-go-go-related gene (hERG) potassium channel (Q12809 whole entry, looked up): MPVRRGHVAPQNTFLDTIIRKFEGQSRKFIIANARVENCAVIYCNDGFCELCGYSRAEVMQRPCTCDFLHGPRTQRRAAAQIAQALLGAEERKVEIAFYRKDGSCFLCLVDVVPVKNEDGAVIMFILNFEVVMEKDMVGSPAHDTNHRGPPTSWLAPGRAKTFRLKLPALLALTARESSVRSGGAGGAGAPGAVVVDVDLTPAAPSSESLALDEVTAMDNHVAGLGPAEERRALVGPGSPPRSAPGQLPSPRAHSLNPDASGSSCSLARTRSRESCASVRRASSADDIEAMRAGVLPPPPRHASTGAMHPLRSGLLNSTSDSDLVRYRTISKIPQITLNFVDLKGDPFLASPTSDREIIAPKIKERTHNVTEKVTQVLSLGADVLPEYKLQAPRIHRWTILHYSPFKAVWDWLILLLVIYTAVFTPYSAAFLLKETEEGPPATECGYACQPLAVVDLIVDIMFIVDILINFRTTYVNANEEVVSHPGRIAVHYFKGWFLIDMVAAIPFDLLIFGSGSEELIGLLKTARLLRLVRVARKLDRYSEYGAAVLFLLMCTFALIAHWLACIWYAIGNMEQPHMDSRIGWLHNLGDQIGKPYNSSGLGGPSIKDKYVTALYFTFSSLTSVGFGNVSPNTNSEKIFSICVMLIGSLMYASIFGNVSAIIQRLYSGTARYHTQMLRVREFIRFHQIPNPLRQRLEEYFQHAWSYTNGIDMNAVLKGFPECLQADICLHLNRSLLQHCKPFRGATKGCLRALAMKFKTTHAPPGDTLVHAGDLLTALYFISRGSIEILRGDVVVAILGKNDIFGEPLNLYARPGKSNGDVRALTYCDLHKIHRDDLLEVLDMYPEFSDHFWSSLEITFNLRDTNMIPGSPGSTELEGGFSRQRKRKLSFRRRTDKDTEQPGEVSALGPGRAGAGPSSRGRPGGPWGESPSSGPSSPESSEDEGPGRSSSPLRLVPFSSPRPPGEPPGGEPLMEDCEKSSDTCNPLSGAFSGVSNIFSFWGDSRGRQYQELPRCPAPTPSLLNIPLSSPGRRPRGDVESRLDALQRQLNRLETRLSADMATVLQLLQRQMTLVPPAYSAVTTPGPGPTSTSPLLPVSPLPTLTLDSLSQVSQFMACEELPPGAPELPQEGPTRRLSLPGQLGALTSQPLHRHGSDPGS
Take `COc1ccc(S(=O)(=O)n2oc(=O)cc2-c2ccccc2)cc1`: the “hERG current change (%, negative = inhibition) at 1uM” value amounted to 3.95%.
Take `CCOc1ccccc1N(CC(=O)N1CCC(C(N)=O)CC1)S(=O)(=O)c1ccc(SC)cc1`: the “hERG current change (%, negative = inhibition) at 1uM” value turned out to be 15%.
As for `COc1cc(-c2nnn(CC#N)n2)ccc1OCc1ccccc1`, the figure is 5.82%; as for `O=C(Nc1ccccc1)C1=C[C@@H](c2ccc(Br)cc2)C[C@@H](OCCCCO)O1`, 8.56%.
As for `CC1=NN(c2cccc(F)c2)C(=O)/C1=C/c1ccc(N(C)C)cc1`, the figure is 3.18%; as for `COc1ccc(-c2cc(-c3ccc(C)cc3)n[nH]2)c(O)c1`, 14.6%; as for `Cn1c(=O)oc2cc(S(=O)(=O)NCc3ccco3)ccc21`, 6.5%.
As for `Cc1occc1C(=O)N/N=C/c1ccc(N(C)C)cc1`, the figure is 15.7%; as for `CCOC(=O)CC(=O)CSc1nc(CC)c(C)cc1C#N`, 15%.
In the case of `CN1CCN(C(=O)Nc2cccc3ccccc23)CC1`, the “hERG current change (%, negative = inhibition) at 1uM” value was 12.7%.
Consider `CC(=O)O[C@H]1C(=O)[C@@]2(C)C([C@H](OC(=O)c3ccccc3)[C@]3(O)C[C@H](O)C(C)=C1C3(C)C)[C@]1(OC(C)=O)CO[C@@H]1C[C@H]2O` (stereo partly drawn), for which the “hERG current change (%, negative = inhibition) at 1uM” value is on record as 7.12%.
As to `CC1c2cccn2CCN1S(=O)(=O)c1ccc(F)cc1` (stereo not drawn), the “hERG current change (%, negative = inhibition) at 1uM” value was 3.57%.
To `Cc1ccc2c(c1)nnn2C1CCN(C(=O)c2ccccc2F)CC1` belongs 6.24%.
With `O=c1oc2ccccc2n1CSc1nc2ccccc2s1`, the “hERG current change (%, negative = inhibition) at 1uM” value was determined as 9.16%.
For `COc1ccc(/C=N/N=C/c2ccc(OC)cc2)cc1`, the “hERG current change (%, negative = inhibition) at 1uM” value turned out to be 10.2%.
As for `Cc1c(Cl)cccc1-n1ccnc1SCC(=O)O`, the figure is 18.4%; as for `O=C(CN1CCC(n2nnc3cc(F)ccc32)CC1)NC1CC1`, 3.28%.
Turning to `COc1ccc(C)cc1-n1c(SCC(=O)NCC2CCCO2)nc2c([nH]c3ccccc32)c1=O` (stereo not drawn), the “hERG current change (%, negative = inhibition) at 1uM” value is reported as 2.13%.
To `Cc1ccccc1-c1noc(-c2ccc(Cl)cc2)n1` belongs 19.7%; to `CCC(C)N(C)Cc1cccc(C2(O)CCN(S(=O)(=O)c3ccc(F)c(C)c3)CC2)c1` (stereo not drawn), -71.2%; to `CCOC(=O)c1ccccc1N/C=C/C(=O)c1ccccc1`, 6.16%.
On to `CSCCC(NC(=O)c1ccco1)C(=O)NCCc1ccc(F)cc1` (stereo not drawn), for which the “hERG current change (%, negative = inhibition) at 1uM” value is 4.48%.
As for `Cc1[nH]c2ccccc2c1/C=N/NC(=O)CNC(=O)c1ccc2c(c1)OCCO2`, the figure is 12.9%; as for `COCCN(CC(=O)Nc1cccc(C)c1C)C(=O)c1cc(-c2ccncc2)nc2ccccc12`, -7.99%; as for `CCOC(=O)C1CCCN(CC(=O)NC2CC2)C1.O=C(O)C(=O)O` (stereo not drawn), -5.28%.
To `Cc1sc(NC(=O)CS(=O)(=O)c2ccccc2)c(C#N)c1C` belongs 8.45%; to `COc1cccc(NC(=O)Cc2ccccc2)c1`, 12.6%.
For `S=C(NCC1CCCO1)N1CCc2ccccc2C1` (stereo not drawn), the “hERG current change (%, negative = inhibition) at 1uM” value is on record as 9.65%.
For the compound `Cc1nc2c(-c3ccccc3)c(C)nn2c(C)c1CCC(=O)N1CCOCC1`, the “hERG current change (%, negative = inhibition) at 1uM” value is -13.1%.
With `CC1(C)Cc2nc3sc(C(N)=O)c(N)c3cc2CO1`, the “hERG current change (%, negative = inhibition) at 1uM” value is reported as 12.7%.
Consider `O=C(Nc1nc2nccc(-c3ccccc3)n2n1)c1ccc(F)cc1`, for which the “hERG current change (%, negative = inhibition) at 1uM” value turned out to be 23.5%.
Regarding `S=C(Nc1ccc(Br)cc1Cl)N1CCN(c2ccccn2)CC1`, the “hERG current change (%, negative = inhibition) at 1uM” value was -3.09%.
To `CCCOc1ccc(-c2c(C(=O)N/N=C(\C)c3ccco3)nnn2-c2nonc2N)cc1` belongs 16.7%; to `COc1cnc(-c2ccccn2)nc1Sc1c(Cl)cccc1Cl`, 9.34%; to `C[C@H]1C(=O)O[C@@H]2CCN3CC=C(COC(=O)[C@](C)(O)[C@]1(C)O)[C@H]23`, 2.43%.
As for `O=C(COc1cccc(OC(F)F)c1)Nc1ccc(SC(F)F)cc1`, the figure is 2.87%; as for `COc1ccc(-c2csc(N3C(=O)C4C5c6ccccc6C(c6ccccc65)[C@@H]4C3=O)n2)cc1` (stereo partly drawn), 8.02%.
As for `CC(C)CNC(=O)CN(C1CCCCC1)S(=O)(=O)c1ccccc1`, the figure is 8.23%; as for `O=C(CSc1n[nH]c(-c2cccnc2)n1)Nc1ccnc2ccccc12`, 5.98%.
`CCS(=O)(=O)c1nc(S(=O)(=O)c2ccc(Cl)cc2)c(NCCN2CCOCC2)s1`: the “hERG current change (%, negative = inhibition) at 1uM” value was 7.96%.
To `Clc1ccc(-c2nnc3c4ccccc4nc(N4CCOCC4)n23)cc1Cl` belongs -15.9%; to `CCN1CCN(C(=O)CCN2C(=O)c3ccccc3C2=O)CC1`, 1.35%; to `Cc1ccc2c(c1)N(CCC(=O)NC1CCCCC1)C(=O)CO2`, 22.6%.
As for `Cc1nc(C)n(C(C)CNS(=O)(=O)c2ccc(C)c(C)c2)n1` (stereo not drawn), the figure is 18.2%; as for `O=C(O)/C=C/C(=O)Nc1ccc(Cl)cc1C(=O)c1ccccc1`, -2.2%.
